{
  "source": "PubChem BioAssay AID1345083",
  "about": "(National Center for Advancing Translational Sciences (NCATS), 2018)",
  "note": "Screen size: about 94,000 compounds; about 6,200 (6.6%) were called active. Inconclusive means that the source gave no clear call. Such entries were picked first, then a sample of the others. Calls follow the shape of the dose curve; as a rule, active = well fitted inhibition curve with a large enough effect; inconclusive = small, poorly fitted or top-dose-only effect; inactive = flat fitted curve, though single readings scatter. A potency beside an inconclusive call is a rough fit, not a confirmed value. % is scaled to controls: 0 for no effect and ±100 for the full control effect; potency is read from the fitted curve at half-maximal effect; tags tell the direction and shape of the fitted curve.",
  "data": [
    {"assay": "Cytotoxic Profiling in HEK 293 Cell Line of Diverse Libraries Using Quantitative High-Throughput Screening; also: nearly all actives have a fitted effect of over 60% in size", "conditions": "HEK 293 viability, ATP luminescence (CellTiter-Glo), 48-72 h; activity change, negative = cytotoxicity: at 115 µM (top of the series) unless noted; series mostly up to 115 µM", "in_short": "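Viability of HEK 293 cells, plated at 250 cells/well, was judged by cellular ATP after compound treatment for 48 or 72 hr. Luminescence was imaged 10 min after CellTiter-Glo addition at room temperature.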", "values": [
      {"smiles": "Cc1ccc(C(=O)N2CCC(Oc3ncccc3C(=O)N3CCCCC3)C2)cc1C", "note": "(stereo not given)", "Potency": "inconclusive: 89.1 µM [inhibitor, single point]"},
      {"smiles": "O=c1cc(N2CCOCC2)oc2c(-c3cccc(F)c3)nccc12", "Potency": "inconclusive: 89.1 µM [inhibitor, partial curve]"},
      {"smiles": "CC(=O)N1CCc2nc(-c3ccccc3)nc(-c3ccc(Cl)cc3)c2C1", "Potency": "inconclusive: 79.4 µM [inhibitor, partial curve, poor fit]"},
      {"smiles": "Cc1ccc(NC(=O)Cn2ccn3nc(-c4ccccc4)c(CO)c3c2=O)cc1Cl", "Potency": "inconclusive: 50.1 µM [inhibitor, partial curve, poor fit]"},
      {"smiles": "O=C(CCC1CCCN(S(=O)(=O)c2cccc(F)c2)C1)N1CCc2ccccc2C1", "note": "(stereo not given)", "Potency": "inconclusive: 56.2 µM [inhibitor, partial curve, poor fit]"},
      {"smiles": "COc1ccc(-c2[nH]nc3ncc(-c4ccccc4OC)nc23)c(C)c1", "Potency": "active: 89.1 µM"},
      {"smiles": "O=C(NC1CCN(c2cc(-c3ccccc3)[nH]n2)C1)c1ccc(F)c(Cl)c1", "note": "(stereo not given)", "Potency": "inconclusive: 44.7 µM [inhibitor, partial curve, poor fit]"},
      {"smiles": "COc1cccc(-c2cn3c(n2)N(C(=O)C2CCCO2)CCC3)c1", "note": "(stereo not given)", "Potency": "inconclusive: 35.5 µM [inhibitor, full curve, poor fit]"},
      {"smiles": "CC(C)C[C@@H]1N[C@H](C(=O)NCC2CC2)Cc2cn(Cc3ccccn3)c3cccc1c23", "Potency": "active: 44.7 µM"},
      {"smiles": "COc1ccc(CN2CCC3(Cc4ccccc4CNC3=O)C2)cc1F", "note": "(stereo not given)", "activity change, negative = cytotoxicity": "inactive: -28%"},
      {"smiles": "COc1cccc(C(O)c2nc(C(=O)NCc3ccccc3)c(C)o2)c1", "note": "(stereo not given)", "Potency": "inconclusive: 79.4 µM [inhibitor, partial curve, poor fit]"},
      {"smiles": "COc1cccc(-c2cc(-c3ccccc3OC)nc3c(C)noc23)c1", "Potency": "inconclusive: 89.1 µM [inhibitor, partial curve, poor fit]"},
      {"smiles": "CCn1cc(S(=O)(=O)N2CCC3(CC2)CC(N2CCOCC2)CCO3)cn1", "note": "(stereo not given)", "Potency": "inconclusive: 89.1 µM [inhibitor, single point]"},
      {"smiles": "O=c1cc(-c2ccccn2)oc2c(NCc3ccc(F)cc3)nccc12", "Potency": "inconclusive: 44.7 µM [inhibitor, full curve]"},
      {"smiles": "COc1ccc(-c2ccnc(N[C@H]3CO[C@H]4[C@@H]3OC[C@@H]4NS(=O)(=O)c3cccs3)n2)cc1", "Potency": "inconclusive: 50.1 µM [inhibitor, partial curve, poor fit]"},
      {"smiles": "O=C(c1ccc(Cl)cc1)N1CC2(CCN(Cc3cccnc3)C2)Cc2ccccc21", "note": "(stereo not given)", "Potency": "inconclusive: 56.2 µM [inhibitor, partial curve, poor fit]"},
      {"smiles": "COc1ccc(-c2cc(C[C@H]3CNCC[C@H]3CC(=O)N3CCOCC3)no2)cc1", "activity change, negative = cytotoxicity": "inactive: -22.2% [at 172 µM]"},
      {"smiles": "CCN1CCc2[nH]cnc2C12CCN(C(=O)c1cccc3nccnc13)CC2", "Potency": "inconclusive: 79.4 µM [inhibitor, single point]"},
      {"smiles": "O=C(Nc1ccc(F)cc1)c1ccn2nccc2c1", "Potency": "inconclusive: 79.4 µM [inhibitor, partial curve]"},
      {"smiles": "CC(C)NC(=O)N[C@H]1CCN2C(=O)c3cc(-c4ccccc4F)ccc3NC(=O)[C@@H]2C1", "Potency": "inconclusive: 100 µM [inhibitor, partial curve, poor fit]"},
      {"smiles": "Cn1ccnc1CN1C(=O)CO[C@H]2CN(CCCc3ccccc3)C[C@H]21", "Potency": "inconclusive: 112 µM [inhibitor, partial curve, poor fit]"},
      {"smiles": "COc1ccc(-c2cc(N3CCN(C(=O)c4ccc(C)c(F)c4)CC3)n[nH]2)cc1", "Potency": "inconclusive: 50.1 µM [inhibitor, partial curve, poor fit]"},
      {"smiles": "O=C(CC[C@H]1NC(=O)c2ccccc2NC1=O)NCCn1ccc2c(Cl)cccc21", "activity change, negative = cytotoxicity": "inactive: -6.81%"},
      {"smiles": "CC(=O)N1CCN([C@H]2[C@@H]3OC[C@@H](O3)[C@@H](NCc3ccco3)[C@@H]2O)CC1", "Potency": "inconclusive: 112 µM [inhibitor, partial curve]"},
      {"smiles": "c1ccc(OCC2CN(Cc3ccncc3)CC23CN(c2ccccc2)C3)cc1", "note": "(stereo not given)", "Potency": "inconclusive: 89.1 µM [inhibitor, partial curve, poor fit]"},
      {"smiles": "COc1ccc(CNC(=O)c2ccc3c(c2)N=C(C)c2c(C)ccc(C)c2S3)cc1", "Potency": "active: 10 µM"},
      {"smiles": "O=C(NCc1cccc(F)c1)c1cnc2c(c1)N(C(=O)Cc1ccc(O)cc1)CCC2", "Potency": "inconclusive: 100 µM [inhibitor, partial curve, poor fit]"},
      {"smiles": "COc1ccc(C(=O)N2CCCC(c3noc(COc4ccccc4F)n3)C2)cc1", "note": "(stereo not given)", "Potency": "inconclusive: 35.5 µM [inhibitor, partial curve, poor fit]"},
      {"smiles": "CCC1(C2CCN(C(=O)CCc3ccccc3)CC2)NC(=O)N(CCc2scnc2C)C1=O", "note": "(stereo not given)", "activity change, negative = cytotoxicity": "inactive: 7.45%"},
      {"smiles": "CCCc1ccc(S(=O)(=O)N2CCC3(CC2)[C@H](C(=O)OCC)[C@@H](OC)C(=O)N3C)cc1", "Potency": "inconclusive: 89.1 µM [inhibitor, single point]"},
      {"smiles": "COc1cc(F)ccc1-c1cc(-c2ccc(=O)[nH]c2)c2cncn2c1", "Potency": "inconclusive: 56.2 µM [inhibitor, full curve]"},
      {"smiles": "CN(Cc1cn(-c2ccccc2)nn1)C1CCSCC1", "Potency": "inconclusive: 100 µM [inhibitor, single point]"},
      {"smiles": "CCN(CC)Cc1cnc2c(C(=O)N3CCC(C(N)=O)CC3)cnn2c1", "activity change, negative = cytotoxicity": "inactive: -4.26%"},
      {"smiles": "COc1ccc2cc(C3CN(C(=O)Cc4ccc(O)cc4)CCO3)ccc2c1", "note": "(stereo not given)", "Potency": "inconclusive: 44.7 µM [inhibitor, partial curve, poor fit]"},
      {"smiles": "Cc1nc(C2CC(O)C2)cc(N2CCN(c3cnn(C)c(=O)c3)CC2)n1", "note": "(stereo not given)", "outcome": "inactive"},
      {"smiles": "Cc1ccc(Br)c(C(=O)N2CCCC3(CNc4ncccc4[S+](=O)([O-])N3)C2)c1", "note": "(stereo not given)", "activity change, negative = cytotoxicity": "inactive: -17.1%"},
      {"smiles": "O=[S+]1([O-])NCC2(CCN(Cc3ccsc3)CC2)Oc2ncccc21", "outcome": "inactive"},
      {"smiles": "O=C(CCc1ccnc(N2CCOCC2)c1)NCCN1CCc2ccccc2C1", "activity change, negative = cytotoxicity": "inactive: -0.32%"},
      {"smiles": "CN(C)c1ccc(CN2CC[C@H](c3nc4ccc(C#N)cc4[nH]3)C2)cc1", "Potency": "inconclusive: 100 µM [inhibitor, partial curve, poor fit]"},
      {"smiles": "O=C(CCC(F)(F)F)N1CCc2nc(-c3ccc(Cl)cc3)[nH]c2C1", "Potency": "inconclusive: 79.4 µM [inhibitor, single point]"}
    ]}
  ]
}
